Laboratory results published in paper PMC6919601, “Identification of Plasmodium dipeptidyl aminopeptidase allosteric inhibitors by high throughput screening” (PLoS ONE, 2019).
Out of some 110,000 compounds screened, about 230 (0.21%) showed an effect of 50% or more. This is one part of the list.

biological target: DPAP1 (Plasmodium falciparum, UniProt Q8IIJ9); test: primary screen, percent inhibition; read by cleavage of a fluorogenic dipeptide substrate; higher = more effect of the substance; set-up: species or system P. falciparum D10 trophozoite lysates; single well
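Also: 30 min substrate incubation versus DMSO and 10 µM JCP410 controls.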

Sequence of DPAP1 (Q8IIJ9 whole entry, looked up): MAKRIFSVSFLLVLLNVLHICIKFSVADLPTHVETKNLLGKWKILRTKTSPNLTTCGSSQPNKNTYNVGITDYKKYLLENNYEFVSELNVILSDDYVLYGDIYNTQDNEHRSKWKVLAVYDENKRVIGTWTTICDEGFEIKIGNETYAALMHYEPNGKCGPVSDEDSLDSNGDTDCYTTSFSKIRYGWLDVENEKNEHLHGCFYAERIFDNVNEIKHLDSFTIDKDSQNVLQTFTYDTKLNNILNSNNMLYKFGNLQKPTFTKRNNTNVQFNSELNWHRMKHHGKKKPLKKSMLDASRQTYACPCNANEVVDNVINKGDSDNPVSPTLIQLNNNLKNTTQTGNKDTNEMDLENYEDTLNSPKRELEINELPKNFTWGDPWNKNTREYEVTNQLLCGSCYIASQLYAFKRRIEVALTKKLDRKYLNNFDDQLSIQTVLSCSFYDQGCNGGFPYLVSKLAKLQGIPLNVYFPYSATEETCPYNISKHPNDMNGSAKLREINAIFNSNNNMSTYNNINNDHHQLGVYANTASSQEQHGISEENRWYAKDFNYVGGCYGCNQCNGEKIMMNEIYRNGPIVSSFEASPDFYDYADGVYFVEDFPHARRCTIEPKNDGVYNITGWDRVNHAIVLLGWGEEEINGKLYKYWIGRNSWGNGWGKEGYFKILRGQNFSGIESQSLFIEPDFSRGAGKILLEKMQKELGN

Compound | % Inhibition @ 10 uM
CCOc1ccc(-n2cc(-c3ccccc3)c3c(NCCCO)ncnc32)cc1 | 4.61%
CCCOc1ccc(N2C(=O)CC(N3CCN(c4ccc(F)cc4)CC3)C2=O)cc1 (stereo not shown) | -3.72%
COC(=O)c1c(/N=C/N(C)C)c(C#N)c2n1CCCC2 | 3.03%
CCc1nc2ccc(C(=O)N3CCC(C(N)=O)CC3)cc2nc1CC | -6.62%
CCOc1ccc(C2Nn3c(nnc3-c3ccccc3)SC2C(=O)NCc2ccccc2)cc1 (stereo not shown) | -7.35%
Cc1cccc(N2CCN(C(=O)c3ccco3)CC2)c1C | -5.14%
CC(C)c1ccc(S(=O)(=O)N2CCN(c3ccc(F)cc3)CC2)cc1 | -5.4%
C=C1CC2C(CCC3(C)C2CCC3(O)C(C)=O)C2(C)CCC(=O)C=C12 (stereo not shown) | -0.744%
O=C(Cn1cnc2c(nnn2-c2cccc(Cl)c2)c1=O)NCC1CCCO1 (stereo not shown) | -2.16%
COc1ccc(OC)c(-n2nnc(-c3nc(-c4ccccc4)no3)c2N)c1 | -1.59%
COc1ccc(C(=O)C2=C(O)C(=O)N(c3nc(C)c(C(C)=O)s3)C2c2ccccc2)cc1 (stereo not shown) | -0.425%
CCC(C)NC(=O)c1cc(-c2ccc(Cl)s2)nc2ccccc12 (stereo not shown) | -6.5%
COc1ccccc1C(=O)Nc1ccc([S+](N)O)cc1 (stereo not shown) | -1.29%
O=C(O)C1C2CC=CC2c2cc([N+](=O)[O-])cc3c2N1CC1CC=CC31 (stereo not shown) | 0.345%
COc1ccc(Cl)cc1NC(=O)CN(c1ccc2c(c1)OCCO2)S(=O)(=O)c1ccccc1 | -2.32%
COc1ccc2c(c1)c(C)c(C)n2CCC(=O)O | -0.28%
O=C1C(N2CCCC2)=C(N2CCN(S(=O)(=O)c3ccccc3)CC2)C(=O)c2ccccc21 | -1.52%
C=CCOc1ccc(/C=c2\sc3nc(C4COc5ccccc5O4)nn3c2=O)cc1OC (stereo not shown) | 1.91%
COc1cc(C2C3=C(O)CCCC3=NC(C)=C2C(=O)Nc2ccccc2C)cc(Br)c1O (stereo not shown) | 2.38%
Cc1ccc(C(=O)O)cc1S(=O)(=O)Nc1cccc(F)c1 | -1.96%
COC(=O)c1cc(CN2CCOCC2)ccc1O | -0.958%
OC1CCN(Cc2ccc(Br)s2)CC1 | -1.92%

Compound | % Inhibition @ 10 uM
O=C(NCCCn1ccnc1)c1ccccc1C(=O)c1ccccc1 | 1.37%
COc1ccc(-c2noc(CNC(=O)CCC3CCCC3)n2)cc1 | -4.82%
O=C(NC1CCCCC1)/C(=C/c1ccc2c(c1)OCO2)NC(=O)c1ccc(Br)cc1 | 4.95%
COCCCNc1ncnc2c1nc1n2CCCCC1 | -2.17%
CCOC(=O)c1c(S(=O)(=O)NCCCN2CCCC2=O)c(C)n(C)c1C | -1.77%
CCOC(=O)c1cccnc1SC(CC)C(=O)N1CCOCC1 (stereo not shown) | 3.66%
c1cc2c(cc1-c1nn3cnnc3s1)OCO2 | 3.88%
Fc1ccc(NCc2ccc3c(c2)OCCO3)cc1F | -5.31%
Cc1ccc(CNC(=O)C(C)Oc2ccccc2)c(S)n1 (stereo not shown) | 2.18%
CCC(C(=O)NCCOC)n1c2ccccc2c2cnnc(O)c21 (stereo not shown) | -2%
CC(=O)Nc1ccc2c(c1)C(=O)N(c1ccc3ccccc3c1)C2=O | -7.09%
NC(=O)c1c(NC(=O)c2cc(-c3ccc(O)cc3)on2)sc2c1CCCC2 | 0.723%
CCOc1ccc(-n2nc3ccc(N)cc3n2)cc1 | 2.65%
CCOC(=O)c1cnc(SCc2nc(-c3cccs3)oc2C)nc1N | 1.44%
CCOc1ccc(-c2[nH]nc3c2C(c2ccccc2F)C(C#N)=C(N)O3)c(OCC)c1 (stereo not shown) | 2.67%
CC(=O)c1cn(CCCn2cc(C(C)=O)c(=O)[nH]c2=O)c(=O)[nH]c1=O | 2.13%
CCCSc1nc(O)c2cnn(-c3ccccc3)c2n1 | -1.54%
Oc1ccccc1/C=C/c1ccc2ccccc2n1 | 1.27%
O=C(C1CCN(c2nnc(N3CCCC3=O)s2)CC1)N1CCN(c2ccccn2)CC1 | -8.54%
c1ccc2[nH]c(C3CCCN3)nc2c1 (stereo not shown) | 1.12%
CSc1ncc(C(=O)NCCCOC(C)C)c(-c2ccccc2)n1 | 4.32%
COc1cc2c(cc1OC)C(c1ccccc1)NC(C)(C)C2 (stereo not shown) | -8.61%

Compound | % Inhibition @ 10 uM
CC(=O)c1ccc(C(=O)N(CCCN(C)C)c2nc3c(F)cc(F)cc3s2)cc1 | -3.77%
CCOc1ccc(-c2c(C)sc3ncn(CC(=O)N4CCOCC4)c(=O)c23)cc1 | -2.05%
COc1ccc(N(CC(=O)NCc2ccc(C)cc2)S(C)(=O)=O)c(OC)c1 | -5.67%
O=C(NC1(C(F)(F)F)NC(=O)N(Cc2ccco2)C1=O)c1ccc(F)cc1 (stereo not shown) | -1.52%
CC(=O)c1cnc2c(-c3ccccc3)c(COc3ccccc3)nn2c1C | 6.28%
Cc1c(Cl)c(C(=O)NC2CCCCCC2)nn1C | 0.385%
COc1ccc(-c2nnc(-c3ccccc3)n2-c2ccccc2)cc1 | -5.92%
COc1ccc(C2C(C#N)=C(N)Oc3[nH]nc(C)c32)cc1COc1ccccc1C (stereo not shown) | -0.661%
Cc1ccc2nc(O)c(CN(C)S(C)(=O)=O)cc2c1 | 2.62%
CCc1nnc(O)c2cc3cc(OC)ccc3n12 | 11.8%
C=CCOC(=O)C1=C(C)N(C)C(=O)NC1c1cn(-c2ccccc2)nc1-c1ccccc1 (stereo not shown) | -1.93%
CC(C)COc1ccc(-c2nn(-c3ccccc3)cc2CO)cc1 | 0.0598%
COc1c2c(nc3ccccc13)OC(C(C)(O)COC(C)=O)C2 (stereo not shown) | -2.91%
O=C(Cn1c2c(c3ccccc31)CCCC2)N1N=C(C(F)F)CC1(O)C(F)F (stereo not shown) | 1.03%
Cc1ccc2nc3c(O)n(CC(=O)Nc4cccnc4Cl)ncc-3c2c1 | -0.349%
CCCC(C)N1CCN(S(=O)(=O)c2ccc(-c3cc(C(F)(F)F)no3)s2)CC1 (stereo not shown) | 0.00978%
Cc1cccc(NC(=O)C2CC(=O)N(c3cccc(Cl)c3C)C2)c1C (stereo not shown) | -4.14%
CCN1CCC(NCCc2cccc(F)c2)CC1 | 3.19%
CC(C)c1nnc(NC(=O)CSc2nnc3c4ccccc4n(C)c3n2)s1 | 6.31%
CNC(=O)CN(c1cc(C)ccc1C)S(=O)(=O)c1ccc(C)cc1 | 0.00477%
